Assay results taken from PubChem BioAssay AID1963576 (National Center for Advancing Translational Sciences (NCATS), 2024).
Among all 46,000 compounds or so, about 60 (0.1%) were called active. Roughly 3% stayed inconclusive and do not appear here. The call rests on the fitted dose curve; in most records, active means well fitted inhibition curve with a large enough effect; inconclusive means small, poorly fitted or top-dose-only effect; inactive means no such curve, though single readings can be large or run the other way. This is one part of the list.

Test: Primary qHTS assay for Inhibitors of ovarian cancer metastasis using an organotypic tumor microenvironment (TME) model. Further: nearly all actives have a fitted effect of over 65% in size.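 On activity change, negative = inhibition: plate controls were DMSO wells for no effect and tomatine positive control wells for full effect.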
Settings: SKOV3ip1-GFP adhesion/invasion on 3D omental model, fluorescence; series mostly up to 45.8 µM; activity change, negative = inhibition: at the top concentration
In short: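 qHTS, 4-pt dose (0.36-46 umol/L); SKOV3ip1-GFP, 1,200 cells/well, no FBS; primary omental fibroblast/mesothelial co-culture 48 h pre-grown; 2 h RT + 16 h 37 C; PBS wash, 4% PFA; GFP count 488/509 nm.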

Activity change, negative = inhibition, inactive:
CCc1ccccc1NC(c1nnc(-c2cccc(F)c2)o1)c1ccc(F)cc1Cl (stereo unspecified) 2.22%
Cc1ccc(S(=O)(=O)NC2(C(F)(F)F)NC(=O)N(CCc3ccccc3)C2=O)cc1 (stereo unspecified) 8.88%
COc1cccc2c1cc1c(=O)n(CC(=O)N3CCN(c4ccc(Cl)cc4)CC3)nc(C)n12 8.89%
Cc1ccc(NS(=O)(=O)c2ccc3c(c2)n(C)c(=O)n3C)cc1C 0.79%
COc1ccccc1NC(=O)Cn1c(SCC(=O)N(C)c2ccccc2)nc2ccccc21 -4.04%
Cc1cc2nc(-c3ccc(OCc4ccccc4Cl)cc3)cc(C(F)(F)F)n2n1 14.1%
COc1cccc(C(=O)N2CCN(CCc3ccncc3)CC2)c1 -3.46%
Cn1c(=O)c2c(-c3cccc(Br)c3)n(C(C)(C)CO)cc2n(C)c1=O -15.9%
CCC(C(=O)NCc1ccco1)n1nc(C)c2c(C)n(-c3ccc(C)cc3)nc2c1=O (stereo unspecified) 2.23%
O=C(Nc1ccccc1Cl)C1CCN(c2nc3ccccc3nc2C(F)(F)F)CC1 14.8%
CCOc1ccccc1NC(=O)CSc1nnc2[nH]c(=O)cc(-c3ccccc3)n12 -0.608%
Cc1cc(C)cc(NC(=O)Cn2cc(S(=O)(=O)NC(C)(C)C)c(S(=O)(=O)NC(C)(C)C)c2)c1 2.95%
N#CC(c1ccnc(NCCc2cccnc2)n1)c1nc2ccccc2s1 (stereo unspecified) -4.02%
CNC(=O)c1c(NC(=O)c2ccc(S(=O)(=O)N3CCCCC3)cc2)sc2c1CCC2 -12.6%
CCOc1ccc(N2CC(NC(=O)/C=C\c3ccc4c(c3)OCO4)CC2=O)cc1 (stereo unspecified) 13.9%
COc1ccc(-n2ccnc(NCc3ccccc3OC)c2=O)cc1 1.27%
CCOC(=O)c1sc2ccccc2c1S(=O)(=O)Nc1ccc(CC)cc1 -20.8%
CCc1ccc(C(=O)c2cn(CC(=O)NC3CCCCC3)c3nc(C)ccc3c2=O)cc1 -18.8%
COc1ccc(-n2nc(C(=O)N3CCCC(C)C3)c3c4ccccc4n(C)c3c2=O)cc1 (stereo unspecified) 3.98%
CCOC(=O)c1cc2c(=O)n3ccccc3nc2n(C(C)C)c1=NC(=O)c1cc2ccccc2o1 3.76%
COc1cccc(CNC(=O)c2ccc3c(c2)c(C)c(C)n3Cc2ccccc2)c1OC -5.12%
COc1ccc(NS(=O)(=O)c2cc(Br)cc3c2N(C(=O)C2CC2)CC3)cc1OC -0.41%
O=S(=O)(Nc1cc(F)ccc1F)c1ccc2[nH]c3c(c2c1)CCCC3 2.11%
NS(=O)(=O)c1ccc(CCNc2nccn(-c3cccc(C(F)(F)F)c3)c2=O)cc1 0.205%
CSc1nc2c(c(=O)[nH]1)C(c1cccc(F)c1F)CC(=O)N2 (stereo unspecified) -18.4%
O=C(Cc1ccccc1)NC1CC(=O)N(c2ccccc2)C1 (stereo unspecified) -12.7%
O=c1c2oc3ccccc3c2n(Cc2cccc(Cl)c2)c(=O)n1Cc1ccco1 0.28%
COc1ccc(-c2cc(C(F)(F)F)nc(SCCC(=O)Nc3ccccc3F)n2)cc1 0.291%
Cc1ccc2occ(CC(=O)N(Cc3ccc(Cl)cc3)C3CCS(=O)(=O)C3)c2c1 (stereo unspecified) -4.41%
CCOC(=O)c1ccccc1NC(=O)CSc1ccc(-c2cccs2)nn1 -5.94%
Cc1cc(-c2nc3ncccc3o2)ccc1NC(=O)COc1ccccc1C 0.568%
Cc1nnc(N2CCN(C(=O)NC(C)C)CC2)c2nn(-c3ccccc3)c(C)c12 -2.55%
CCN(CC)c1ccc(NC(=O)c2cnc3c(-c4ccccc4)c(C)nn3c2C)c(C)c1 9.98%
Cc1c(NC(=O)c2cc(-c3ccc(F)cc3)on2)c(=O)n(-c2ccccc2)n1C 2.07%
CCc1ccc(Nc2nn(-c3ccc(OC(F)(F)F)cc3)nc2C(C)=O)cc1 7.26%
CCCC1=Nc2cc(C(=O)NC3CCCC3)ccc2Sc2ccc(C)cc21 -7.73%
Cc1cc(C)cc(NC(=O)CSc2cc(C)[nH]c(=O)n2)c1 7.08%
COc1cccc2c1cc1c(=O)n(CC(=O)N3CCN(c4cccc(C)c4)C(C)C3)nc(C)n12 (stereo unspecified) 6.14%
CCOC(=O)CC(NC(=O)Cn1nnc(-c2ccc(C(F)(F)F)cc2)n1)c1ccc(OC)cc1 (stereo unspecified) 5.68%
CCOc1ccc(NC(=O)C2CC(=O)N(c3ccc(C(C)C)cc3)C2)cc1 (stereo unspecified) -0.717%
C[C@@H](O[C@H]1OCCN(Cc2n[nH]c(=O)[nH]2)[C@@H]1c1ccc(F)cc1)c1cc(C(F)(F)F)cc(C(F)(F)F)c1 -12%
COc1ccc(C(=O)N2CCN(Cc3cc(=O)n4nc(-c5ccccc5C)sc4n3)CC2)cc1OC -4.85%
CC(=O)Nc1ccc(-c2cc(C(=O)O)c3c(-c4ccccc4)[nH]nc3n2)cc1 9.92%
COc1cc(CN(C(=O)COc2ccc(C)cc2)c2ccccn2)cc(OC)c1OC -0.472%
CCCCNC(=O)c1nn(-c2ccc(CC)cc2)nc1CO 15.8%
Cc1cccc(NC(=O)C2CCN(S(=O)(=O)c3ccc(F)cc3)CC2)c1C -7.65%
CCOC(=O)c1ccc(NS(=O)(=O)c2ccc3c(c2)n(C)c(=O)n3C)cc1 5.97%
CCc1ccccc1NC(=O)Cn1nnc(C(=O)NCc2ccccc2Cl)c1N -10.7%
CC1CCC(NC(=O)c2ccc3c(c2)N(Cc2cccc(Cl)c2)C(=O)c2ccccc2S3(=O)=O)CC1 (stereo unspecified) -7.44%
CCCn1c(=O)sc2cc(NC(=O)COc3ccc(Cl)cc3)ccc21 -8.3%
COc1cccc(-n2c(=O)c3c4c(sc3n(Cc3ccc(C)cc3)c2=O)CCCC4)c1 -0.148%
COc1ccc(-c2nc(CSCC(=O)N3CCN(c4cccc(C)c4C)CC3)c(C)o2)cc1OC -0.408%
CCN(CC)CCCNC(=O)CN1C(=O)CCn2nc(-c3cn(C)c4ccccc34)cc21 -2.37%
COc1cccc(C(=O)Nc2ccccc2C(=O)OCc2cc(=O)n3nc(C4CC4)sc3n2)c1 8.8%
Cc1c(C(=O)N2CCCC2)oc2c1-c1nn(CC(=O)NCCCOC(C)C)cc1CC2 -6.97%
Cc1ccc(C(=O)c2cn(CC(=O)NC3CCCCC3)c3nc(C)ccc3c2=O)cc1 -0.437%
CN(C)CCN(Cc1ccccc1)S(=O)(=O)c1ccc2[nH]c(=O)ccc2c1 0.119%
O=C(Nc1cc2c(cc1C(=O)c1ccccc1)OCCO2)c1ccc(Br)cc1 0.43%
COc1cc(-c2nc(Cn3nnc(C(=O)Nc4ccccc4)c3C)c(C)o2)cc(OC)c1OC -12.7%
Cc1ccc(CNC(=O)c2cccn2-c2nnc(N3CCCCC3)s2)cc1 -14.6%
Cc1c(C)c2c(cc(C)c3c(-c4ccccc4)coc32)oc1=O 6.67%
O=C(NC1CC(=O)N(c2cccc(F)c2)C1)C1CCCC1 (stereo unspecified) 3.58%
COc1ccc2oc(=O)c(-c3csc(-c4ccc(Br)cc4)n3)cc2c1 -17.4%
Cc1ccccc1-c1nc(SCC(=O)NCc2ccco2)c2c(=O)n(C)c(=O)n(C)c2n1 -17.5%
COc1ccc(-c2csc3nc(-c4ccccc4C)oc(=O)c23)cc1OC 3.13%
Cc1ccc(NC(=O)C2CCN(S(=O)(=O)c3c(C)noc3C)CC2)c(C)c1 -3.29%
O=C(/C=C\c1ccc2c(c1)OCO2)NC1CC(=O)N(c2ccc(Cl)cc2)C1 (stereo unspecified) -6.25%
O=C(Cc1cccs1)NC1CC(=O)N(c2cccc(F)c2)C1 (stereo unspecified) -3.9%
CCOC(=O)c1c(C)oc2ncnc(N3CCN(c4ccccc4F)CC3)c12 -22.7%
COc1ccc(NC(=O)CSc2oc(-c3cccs3)nc2S(=O)(=O)c2ccc(C)cc2)c(OC)c1 1.16%

outcome, inactive:
Fc1ccc(Nc2ncnc3onc(-c4cccc(Cl)c4)c23)c(F)c1
O=C1N(Cc2ccccc2)c2ccc(Cl)cc2C1(O)c1c[nH]c2ccccc12 (stereo unspecified)
Cc1cccc(C(=O)NCC(=O)OCc2cc(=O)n3nc(CC(C)C)sc3n2)c1
CN(C)c1ccc(CNC(=O)c2cccc(NC(=O)N3CCSc4ncccc43)c2)cc1
O=C(c1ccccc1)n1nc(-c2ccccc2)nc1NCc1ccc(F)cc1
CCCCN(CCCC)CCNC(=O)Cn1nc(C)n2c(cc3sccc32)c1=O
CC(C)c1ccc(NC(=O)CS(=O)(=O)c2cccc3nsnc23)cc1
CC(C)(C)C(=O)Nc1ccc2nc(SCC(=O)N3CCOCC3)sc2c1
COc1ccccc1N1CCN(C(=O)CN2C(=O)COc3ccc(S(=O)(=O)N4CCCCCC4)cc32)CC1
Cc1cccc(OCC(=O)Nc2nc3c(s2)CC(C(C)(C)C)CC3)c1C (stereo unspecified)
Cc1ccc(-c2noc(CNS(=O)(=O)c3ccc(F)cc3)n2)cc1
Cn1cc(S(=O)(=O)c2cccc(Cl)c2)c(=O)c2cc(F)c(N3CCN(c4ccc(F)cc4)CC3)cc21
Cn1c(=O)n(-c2ccc3c(c2)OCO3)c2nc(-c3ccccc3)nc(C(N)=O)c21
COc1ccc(NC(=O)c2sc3nc[nH]c(=O)c3c2C)cc1Cl
COc1ccc(C)cc1NC(=O)c1ccc2c(SCC(=O)O)c3c(nc2c1)CCCC3
COc1cccc(CN(C(=O)c2oc3cc(C)ccc3c2C)C2CCS(=O)(=O)C2)c1 (stereo unspecified)
Cc1ccc2nc(-c3ccccc3F)c(Nc3ccc(Cl)cc3)n2c1
COc1ccc(CCNC(=O)c2ccc3c(c2)c(C)c(C)n3Cc2ccc(F)cc2)c(OC)c1OC
COc1ccc(-c2nc3c4ccccc4n(CC(=O)N4CCN(c5ccccc5OC)CC4)c(=O)n3n2)cc1
O=S(=O)(NCc1ccc(F)cc1)c1ccc(-c2cnc(C3CC3)o2)cc1
Cc1nnc(NC(=O)CSCc2cc(=O)c3cc(Cl)ccc3[nH]2)s1
O=C(c1cccn1-c1nnc(N2CCCC2)s1)N1CCN(c2ccccc2)CC1
COc1ccccc1-n1ncc2c(=O)[nH]c(SCC(=O)Nc3ccc(Cl)cc3)nc21
CC(=O)N1CCOc2cc(S(=O)(=O)NCc3ccc(C)cc3)c(Cl)cc21
COc1ccc(C2(Nc3cccc(C(=O)O)c3C)C(=O)c3ccccc3C2=O)cc1
CCSc1nc(-c2ccccc2OC)nc2c1Cc1c(CO)cnc(C)c1O2
